Experimental data reported in PubChem BioAssay (NCI).
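Following 48 hours of exposure in 96-well plates, responses at five concentrations were used to interpolate endpoints linearly. GI50 marks 50% less growth. At the TGI there is no net growth.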

Test system: NCI-H322M lung
Assay: DTP human tumour cell line panel, 48 h

## CCCNNC(=O)c1ccc(-c2ccc(NC(=O)CCCCCCC(=O)N[C@H](C(=O)N3C[C@H](O)C[C@H]3C(=O)N[C@@H](C)c3ccc(-c4scnc4C)cc3)C(C)(C)C)cc2)cc1
  GI50: 3.63 µM
  TGI: > 100 µM

## Nc1ncc(-c2ccc3ncnc(N4CCc5cc(F)c(Cl)cc54)c3c2)cn1
  GI50: 0.937 µM
  TGI: > 100 µM
